# Results published in the supplement of paper PMC4604168 (melanoma cell lines).
# The other results are listed elsewhere or left out. Many values rest on one well or one pass, so single values are uncertain.
# Test system: RVH-421
# Experiment: cell count relative to DMSO control; melanoma cells; higher = more viable cells
# Settings: library dose: low library concentration; 72 h
# 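Also: cell number obtained by counting DAPI-stained nuclei in high-throughput microscope images with image analysis software, screen run in 1,536-well plates.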
row,SMILES,cell count [%]
1,"C[C@]1(O)C[C@@H](c2nc(-c3ccc4ccc(-c5ccccc5)nc4c3)c3c(N)nccn32)C1 + CN(NC(=O)CC(=O)NN(C)C(=S)c1ccccc1)C(=S)c1ccccc1 [STA4783] (first compound 0.4 µM, partner dose 0.006 µM)",98.1
2,"C[C@]1(O)C[C@@H](c2nc(-c3ccc4ccc(-c5ccccc5)nc4c3)c3c(N)nccn32)C1 + NCC(=O)Nc1ccc(-n2nc(C(F)(F)F)cc2-c2ccc3c(ccc4ccccc43)c2)cc1 [OSU03012] (first compound 0.4 µM, partner dose 1 µM)",88.4
3,"CCN(CC)CCNC(=O)c1c(C)[nH]c(/C=C2\C(=O)Nc3ccc(F)cc32)c1C [sunitinib] + Oc1nc(-c2ccc(C(F)(F)F)cc2)nc2c1CSCC2 [XAV939] (first compound 0.4 µM, partner dose 2 µM)",124
4,"C[C@]1(O)C[C@@H](c2nc(-c3ccc4ccc(-c5ccccc5)nc4c3)c3c(N)nccn32)C1 + CC(C)CCN1c2nc(Nc3cc(F)c(O)c(F)c3)ncc2N(C)C(=O)C1C [BID1870] (first compound 0.4 µM, partner dose 0.2 µM)",99.3
5,"CCN(CC)CCNC(=O)c1c(C)[nH]c(/C=C2\C(=O)Nc3ccc(F)cc32)c1C [sunitinib] + COc1cc(N2CCC(N3CCN(C)CC3)CC2)ccc1Nc1ncc(Cl)c(Nc2ccccc2S(=O)(=O)C(C)C)n1 [NVP-TAE684] (first compound 0.4 µM, partner dose 0.08 µM)",129
6,"CCN(CC)CCNC(=O)c1c(C)[nH]c(/C=C2\C(=O)Nc3ccc(F)cc32)c1C [sunitinib] + CCc1ccc(CCOc2ccc(CC3SC(=O)NC3=O)cc2)nc1 [pioglitazone] (first compound 0.4 µM, partner dose 2 µM)",120
7,"C[C@]1(O)C[C@@H](c2nc(-c3ccc4ccc(-c5ccccc5)nc4c3)c3c(N)nccn32)C1 + NC(=O)Nc1cc(-c2cccc(F)c2)sc1C(=O)N[C@H]1CCCNC1 [AZD7762] (first compound 0.4 µM, partner dose 0.02 µM)",124
8,"C[C@]1(O)C[C@@H](c2nc(-c3ccc4ccc(-c5ccccc5)nc4c3)c3c(N)nccn32)C1 + c1cc(-c2cnn3cc(-c4ccc(OCCN5CCCCC5)cc4)cnc23)ccn1 [Dorsomorphin] (first compound 0.4 µM, partner dose 0.4 µM)",89.5
9,"COc1cc([C@@H]2c3cc4c(cc3[C@@H](O[C@@H]3O[C@@H]5CO[C@@H](C)O[C@H]5[C@H](O)[C@H]3O)[C@H]3COC(=O)[C@H]23)OCO4)cc(OC)c1O [etoposide] + COc1cc(N2CCC(N3CCN(C)CC3)CC2)ccc1Nc1ncc(Cl)c(Nc2ccccc2S(=O)(=O)C(C)C)n1 [NVP-TAE684] (first compound 0.02 µM, partner dose 0.08 µM)",101
10,"CCN(CC)CCNC(=O)c1c(C)[nH]c(/C=C2\C(=O)Nc3ccc(F)cc32)c1C [sunitinib] + CCCCCCCCCCCC1=C(O)C(=O)C=C(O)C1=O [Embelin] (first compound 0.4 µM, partner dose 1.2 µM)",119
11,"Cn1cnc2c(F)c(Nc3ccc(Br)cc3Cl)c(C(=O)NOCCO)cc21 [selumetinib] + CO[C@@H]1[C@H](N(C)C(=O)c2ccccc2)C[C@H]2O[C@]1(C)n1c3ccccc3c3c4c(c5c6ccccc6n2c5c31)C(=O)NC4 [Midostaurin] (first compound 0.015 µM, partner dose 0.08 µM)",79.8
12,"COc1cc([C@@H]2c3cc4c(cc3[C@@H](O[C@@H]3O[C@@H]5CO[C@@H](C)O[C@H]5[C@H](O)[C@H]3O)[C@H]3COC(=O)[C@H]23)OCO4)cc(OC)c1O [etoposide] + NC(=O)Nc1cc(-c2cccc(F)c2)sc1C(=O)N[C@H]1CCCNC1 [AZD7762] (first compound 0.02 µM, partner dose 0.02 µM)",123
13,"Cn1cnc2c(F)c(Nc3ccc(Br)cc3Cl)c(C(=O)NOCCO)cc21 [selumetinib] + Oc1nc(-c2ccc(C(F)(F)F)cc2)nc2c1CSCC2 [XAV939] (first compound 0.015 µM, partner dose 2 µM)",78.1
14,"CCN(CC)CCNC(=O)c1c(C)[nH]c(/C=C2\C(=O)Nc3ccc(F)cc32)c1C [sunitinib] + NC(=O)Nc1cc(-c2cccc(F)c2)sc1C(=O)N[C@H]1CCCNC1 [AZD7762] (first compound 0.4 µM, partner dose 0.02 µM)",123
15,"C[C@]1(O)C[C@@H](c2nc(-c3ccc4ccc(-c5ccccc5)nc4c3)c3c(N)nccn32)C1 + O=S(=O)(c1ccccc1)N(CC(F)(F)F)c1ccc(C(O)(C(F)(F)F)C(F)(F)F)cc1 [T0901317] (first compound 0.4 µM, partner dose 1.4 µM)",107
16,"CCN(CC)CCNC(=O)c1c(C)[nH]c(/C=C2\C(=O)Nc3ccc(F)cc32)c1C [sunitinib] + COc1cc(Nc2ncc(F)c(Nc3ccc4c(n3)NC(=O)C(C)(C)O4)n2)cc(OC)c1OC [Tamatinib] (first compound 0.4 µM, partner dose 0.4 µM)",115
17,"C[C@]1(O)C[C@@H](c2nc(-c3ccc4ccc(-c5ccccc5)nc4c3)c3c(N)nccn32)C1 + COc1cc2c(Oc3ccc4[nH]c(C)cc4c3F)ncnc2cc1OCCCN1CCCC1 [cediranib] (first compound 0.4 µM, partner dose 0.4 µM)",140
18,"C[C@]1(O)C[C@@H](c2nc(-c3ccc4ccc(-c5ccccc5)nc4c3)c3c(N)nccn32)C1 + COc1cc2ncnc(Nc3ccc(Oc4ccccc4)cc3)c2cc1OC [SrcI1] (first compound 0.4 µM, partner dose 2 µM)",114
19,"CCN(CC)CCNC(=O)c1c(C)[nH]c(/C=C2\C(=O)Nc3ccc(F)cc32)c1C [sunitinib] + OCCn1cc(-c2cnc3nnn(Cc4ccc5ncccc5c4)c3n2)cn1 [PF04217903] (first compound 0.4 µM, partner dose 1 µM)",123
20,"Cn1cnc2c(F)c(Nc3ccc(Br)cc3Cl)c(C(=O)NOCCO)cc21 [selumetinib] + N#Cc1c(O)c2c(-c3ccc(-c4ccccc4O)cc3)csc2[nH]c1=O [A769662] (first compound 0.015 µM, partner dose 2 µM)",92.8
21,"Cn1cnc2c(F)c(Nc3ccc(Br)cc3Cl)c(C(=O)NOCCO)cc21 [selumetinib] + c1cc(-c2cnn3cc(-c4ccc(OCCN5CCCCC5)cc4)cnc23)ccn1 [Dorsomorphin] (first compound 0.015 µM, partner dose 0.4 µM)",80.5
22,"CCN(CC)CCNC(=O)c1c(C)[nH]c(/C=C2\C(=O)Nc3ccc(F)cc32)c1C [sunitinib] + CC(C)CCN1c2nc(Nc3cc(F)c(O)c(F)c3)ncc2N(C)C(=O)C1C [BID1870] (first compound 0.4 µM, partner dose 0.2 µM)",105
23,"COc1cc([C@@H]2c3cc4c(cc3[C@@H](O[C@@H]3O[C@@H]5CO[C@@H](C)O[C@H]5[C@H](O)[C@H]3O)[C@H]3COC(=O)[C@H]23)OCO4)cc(OC)c1O [etoposide] + COc1ccc(COc2ccc(Cc3cnc(N)nc3N)cc2OC)cc1 [GW2580] (first compound 0.02 µM, partner dose 1 µM)",94.5
24,"Cn1cnc2c(F)c(Nc3ccc(Br)cc3Cl)c(C(=O)NOCCO)cc21 [selumetinib] + NCC(=O)Nc1ccc(-n2nc(C(F)(F)F)cc2-c2ccc3c(ccc4ccccc43)c2)cc1 [OSU03012] (first compound 0.015 µM, partner dose 1 µM)",94
25,"COc1cc([C@@H]2c3cc4c(cc3[C@@H](O[C@@H]3O[C@@H]5CO[C@@H](C)O[C@H]5[C@H](O)[C@H]3O)[C@H]3COC(=O)[C@H]23)OCO4)cc(OC)c1O [etoposide] + O=C(CCCCCCC(=O)Nc1ccccc1)NO [vorinostat] (first compound 0.02 µM, partner dose 0.08 µM)",91.1
26,"C[C@]1(O)C[C@@H](c2nc(-c3ccc4ccc(-c5ccccc5)nc4c3)c3c(N)nccn32)C1 + CO[C@@H]1[C@H](N(C)C(=O)c2ccccc2)C[C@H]2O[C@]1(C)n1c3ccccc3c3c4c(c5c6ccccc6n2c5c31)C(=O)NC4 [Midostaurin] (first compound 0.4 µM, partner dose 0.08 µM)",94.7
27,"CCN(CC)CCNC(=O)c1c(C)[nH]c(/C=C2\C(=O)Nc3ccc(F)cc32)c1C [sunitinib] + C[C@@H]1CCN(C(=O)CC#N)C[C@@H]1N(C)c1ncnc2[nH]ccc12 [CP690550] (first compound 0.4 µM, partner dose 1 µM)",140
28,"Cn1cnc2c(F)c(Nc3ccc(Br)cc3Cl)c(C(=O)NOCCO)cc21 [selumetinib] + CCc1ccc(CCOc2ccc(CC3SC(=O)NC3=O)cc2)nc1 [pioglitazone] (first compound 0.015 µM, partner dose 2 µM)",72.5
29,"C[C@]1(O)C[C@@H](c2nc(-c3ccc4ccc(-c5ccccc5)nc4c3)c3c(N)nccn32)C1 + CCN(CC)CCCCNc1ncc2cc(-c3cc(OC)cc(OC)c3)c(NC(=O)NC(C)(C)C)nc2n1 [PD173074] (first compound 0.4 µM, partner dose 0.1 µM)",74.5
